Read counts are not given, so values of variants with three or more changes are uncertain.
B1: LINE1-mini (parent)
chain: GGCAGAGCUCAACACAGCGUGGCAAAGUGGCUGUGGCUAGACUGCC

Variants of: B1
Experiment: self-cleavage, relative activity (ratio to wild type); higher = more cleavage; in vitro, sequencing; the parent is a self-cleaving ribozyme

Variant	self-cleavage
G1C C3A A6G C15G A16C U32G	0.01
A6G G7U C10A C13A A14U C15A C23U	0.03
U9C A16C C23G G36A A39U	0.03
U28C G35C C45U	0.03
G5U U9C G22U	0.04
A4G G33C U43C C46G	0.01
G7A G22A G44U	0.16
C8G C10A G21U	0.02
G19U A24C C31U	0.52
C23U U34A G36A	0.01
U9C A11U G21C G30C C31G	0.01
C8A G22A C31G G36C	0.08
A6G C23A G30A C31G	0.23
U20G G22C C37G	0.02
A4G A24G G33A A41C C42U	0.07
U9A G21U G33A G40U	0.02
G1U A4G G36A G40A	0.02
A6G C8U G22U A41G C42G	0.16
C23G A26C A39U	0.64
C3A U20G U34A	0.14
A26U G36C C37U G40A	0.21
C8U U9C A11C C15A A25G A26U	0.03
G17C A25U G40A	0.08
G5U G17U G30U C42U	0.03

Variant	self-cleavage
C8A C10A C46A	0.04
A4C A26G G40A A41G	0.08
G2A A4C A14C	0.2
G2C A12U C23U G30A C46A	0.02
A24G G30A G33A	0.19
C15G G30U C37G	0.01
G5U G7C C8A	0.49
C23U A25G A41U	0.52
G5U G33U C42U	0.09
U28G C42G U43A	0.07
G2A C8A G33C	0.12
C8A A14C A25C A26U C42U G44U	0.14
G17C U34G C37A C42U	0.01
G1A A14U G17A C46U	0.06
C31A G33C C45U	0.06
G1A C13U A25U A26G G44U	0.09
G36A A41G G44U	0.1
U9C C18U G22A C46U	0.03
A4C G7C C10A A14G A16U	0.03
C3A C10A G40U A41U	0.04
G5C A14C C18U	0.03
C8A G17C G21U	0.16
G30U U38G C46A	0.01
G7A G21A A24C G40C	0.08

Variant	self-cleavage
A6U G29C C37A A39G	0.02
G7A A12U G19A G29A	0.1
C37G A41C U43A	0.32
A4G C13U C23U G29C G40U C42G U43A	0.09
G1U C15G G40U	0.03
C8U A26C G27U	0.24
C10U A14C G44U	0.04
G1U G2U C23U	0.03
C15A G19C G33A	0.08
G5A U32A C37A	0.03
A4C C13G C46A	0.03
C3U C10A C15U A16C	0.03
C3G C8U U32A C42A G44U	0.32
C8A U38C C46U	0.36
C13G A14C G17U U32A	0.75
G7A U32A G44C	0.06
C13G C15G G40A C45G	0.02
A16U U20C G33A	0
G1U G21C G33A	0.06
A25G A26G G29A	0.51
G1C C23G G27C	0.01
G21U G29C U38C G44U	0.03
C10A C31U U32C	0.07
A14U A16U C18U G35U C37A	0.02

Variant	self-cleavage
A16G C18U G19U U28A U32G G33C	0.02
U9G A16C U20C	0
C3A G19C U34G U38G G44C	0.01
C3A G5A G30C	0.2
G2U A4G C15G G29A C46U	0.06
C8U C13U A14C G21U G40A	0.02
A11C G17U C18U G29A	0
G2A G7U U20A	0.08
C3G C8U G22C A26U C37G G44U	0.02
C8G C13A A16U U34C	0.07
C8U U32A G33C	0.08
G1A A26C G36C	0.23
G1U A6G G35U	0.03
C13A G21U G29C	0.03
C3U G44U C45A	0.03
G7U G19U G30A U43A	0.59
G5C G29C G35U U38C G44U	0.01
C3A A11C C13U C23A G36A A39G	0.01
A25U G30U G35C	0.04
A4C A25C C31A G35U U38C	0.03
G2U A11G G30U U38A A39C	0
A11U C15A C18U A24U	0.02
G2C C8U C18A A26U	0.05
A14C C37U U43C G44C C46A	0.01

Variant	self-cleavage
G1C A16C G17A	0.03
A12U A25C G27U	0.05
C10G G17A G30U U32G	0.02
C3A C15A G21C G22U	0.07
A4U A25G U34A	0.2
C18G G22U G29U U32C C37G	0.02
G2C C8U G36C	0.12
G5A C10A G17C C18A A26U	0.03
G7A C18A G27U G40A	0.09
G1U C13A G17C G40C U43C	0.01
G30U U34C C46G	0.02
C10A C15U G27U A39U	0.05
G5U A11U C23A U32G A41U	0.01
U28G G29A G36A C37U C46A	0.04
A4C G35C G44C	0.02
A11C A12C U28G U32A	0.01
C10U A11U C45U	0.12
A6U G7C C15U G22A	0.09
C13G U32G G36C	0.01
A6U A24U C37A	0.06
G1C G22C A25U C31U	0.04
C3U C23G C42G	0.02
G35U G36A U38C	0.03
C15G G22C U32C	0.02

Variant	self-cleavage
G5C A26C C46G	0.06
G1C C8G C18G	0
G17C U20C C23U G33C	0.01
C31A G33U C37A A39G	0
G1U G22A C37G A39G C46A	0
U9A G36A U38C G44A	0.11
G1U C3A C8U C31U C37U C42A	0.14
A11C G21A C23A G36C	0.01
G7A G17C C37A	0.17
G1U G19C G36A	0.01
C8U A16G C18U C37G	0.05
A16C G19A U20A G21A C45G	0.05
G2U C18G U20A	0.01
C23A G35A G40U	0.03
C3U C15U C23U	0.32
C18A U20G C23G	0.21
G2A G27U C46A	1.4
G2U C18U G22U U28G C37U C46G	0.05
C3U G17A C18G G19U A26U U34A	0.04
U9A A14G C18A G21U G33A C37G	0.03
U20G A24G G40A C45A	0
C8A C42A C45A	0.24
A14G U34C C45G	0.1
C3G U34G C37G A41U	0.05

Variant	self-cleavage
C15A A25U C31G	0.02
G7A A16C C18G U38G	0.11
C10A C15U U28C	0.1
G29U G36C A39U	0.04
C10U U28C A39C	0.05
G17U G30C G36C G40C U43C G44A C45U	0.01
U9A G40C C45G	0.12
C3U G33C G40A	0.11
C15U G29A G40U	0.01
C3U G27U A41C	0.05
G1C C18G G22U U28C U43G	0
A25C C31G G40U	0
G5U C15A U34C G35U C37A	0.05
G17A U34C C37U	0.04
A4C C8A C13A A16C C18G U38G	0.03
C23A A41G C46U	0.12
C8A A39C G40A C45U	0.05
G1U C18U A24C G36A	0.03
G2A G5C A25C U28C	0.06
C23A G33U C42G	0
C8G C23G A24C	0.05
C10G A24G G40U	0
U20G C31G A39C	0.02

Reference: the RNAGym collection of RNA variant scans (doi:10.7554/elife.90254)
